T1: TGF-β2 (UniProt P61812 303-414)
T1 construct: also called TGF-β2 protein
T1 sequence (looked up): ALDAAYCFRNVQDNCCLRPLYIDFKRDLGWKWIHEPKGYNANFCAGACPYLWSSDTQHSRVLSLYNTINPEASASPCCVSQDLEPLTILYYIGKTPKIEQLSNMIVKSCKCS


Key:
TGF-β1 [1] = molecular target: T2, TGF-β1 (human, UniProt P01137 in part); test: indirect ELISA, TGF-β1 coated
T2 construct: also called human TGF-β1; TGF-β1 protein

TGF-β2 = molecular target: T1, TGF-β2; test: indirect ELISA, TGF-β2 coated
TGF-β1 [2] = molecular target: T2, TGF-β1; test: competitive ELISA vs TGF-βRII-His-Biotin, TGF-β1 coated
TGF-β1 [3] = molecular target: T2, TGF-β1; test: indirect ELISA, TGF-β1 coated; remark: listed apart in the source

T2 sequence (P01137 279-390 limits assumed): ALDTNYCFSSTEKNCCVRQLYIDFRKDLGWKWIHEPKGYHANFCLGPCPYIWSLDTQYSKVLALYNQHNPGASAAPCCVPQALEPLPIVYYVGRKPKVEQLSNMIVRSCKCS

| EC50 (TGF-β1 [1]) | EC50 (TGF-β2) | EC50 (TGF-β1 [2]) | EC50 (TGF-β1 [3]) | Binder |
| --- | --- | --- | --- | --- |
| 0.224 nM | 0.594 nM | 7.47 nM |  | TF02 (other, Anti-TIGIT IgG1 (L234A, L235A) antibody with a TGF-βRII fragment linked to the C-terminus of each heavy chain; also called anti-TIGIT antibody-TGF-βR fusion protein TF02) heavy: DVQLQESGPGLVKPSQTLSLTCTVSGHSFTSDYAWSWIRQPPGKGLEWIGYISYSDSTNYNPSLKSRVTISRDTSKNQFSLKLSSVTAADTAVYYCARLDYGNYGGAMDYWGQGTSVTVSS[human IgG1 constant region with changes not printed]GGGGSGGGGSGGGGSGGGGSGIPPHVQKSVNNDMIVTDNNGAVKFPQLCKFCDVRFSTCDNQKSCMSNCSITSICEKPQEVCVAVWRKNDENITLETVCHDPKLPYHDFILEDAASPKCIMKEKKKPGETFFMCSCSSDECNDNIIFSEEYNTSNPD light: DIQMTQSPSSLSASVGDRVTITCRSSQHVSTALAWYQQKPGKSPKLLIYSASSRYSGVPDRFSGSGSGTDFTFTISSLQPEDFATYYCQQHYITPWTFGGGTKLEIKRTVAAPSVFIFPPSDEQLKSGTASVVCLLNNFYPREAKVQWKVDNALQSGNSQESVTEQDSKDSTYSLSSTLTLSKADYEKHKVYACEVTHQGLSSPVTKSFNRGEC |
|  | 0.477 nM |  |  | TF01 (other, Anti-TIGIT IgG4 (F234A, L235A) antibody with a TGF-βRII fragment linked to the C-terminus of each heavy chain; also called anti-TIGIT antibody-TGF-βR fusion protein TF01) heavy: DVQLQESGPGLVKPSQTLSLTCTVSGHSFTSDYAWSWIRQPPGKGLEWIGYISYSDSTNYNPSLKSRVTISRDTSKNQFSLKLSSVTAADTAVYYCARLDYGNYGGAMDYWGQGTSVTVSSASTKGPSVFPLAPCSRSTSESTAALGCLVKDYFPEPVTVSWNSGALTSGVHTFPAVLQSSGLYSLSSVVTVPSSSLGTKTYTCNVDHKPSNTKVDKRV[human IgG4 Fc with S228P F234A L235A (EU numbers) not printed]GGGGSGGGGSGGGGSGGGGSGIPPHVQKSVNNDMIVTDNNGAVKFPQLCKFCDVRFSTCDNQKSCMSNCSITSICEKPQEVCVAVWRKNDENITLETVCHDPKLPYHDFILEDAASPKCIMKEKKKPGETFFMCSCSSDECNDNIIFSEEYNTSNPD light: DIQMTQSPSSLSASVGDRVTITCRSSQHVSTALAWYQQKPGKSPKLLIYSASSRYSGVPDRFSGSGSGTDFTFTISSLQPEDFATYYCQQHYITPWTFGGGTKLEIKRTVAAPSVFIFPPSDEQLKSGTASVVCLLNNFYPREAKVQWKVDNALQSGNSQESVTEQDSKDSTYSLSSTLTLSKADYEKHKVYACEVTHQGLSSPVTKSFNRGEC |
|  |  |  | 0.1 nM | TF01T (other, Point mutant of TF01; also called anti-TIGIT antibody-TGF-βR fusion protein TF01T) heavy: DVQLQESGPGLVKPSQTLSLTCTVSGHSFTSDYAWSWIRQPPGKGLEWIGYISYSDSTNYNPSLKSRVTISRDTSKNQFSLKLSSVTAADTAVYYCARLDYGNYGGAMDYWGQGTSVTVSSASTKGPSVFPLAPCSRSTSESTAALGCLVKDYFPEPVTVSWNSGALTSGVHTFPAVLQSSGLYSLSSVVTVPSSSLGTKTYTCNVDHKPSNTKVDKRV[human IgG4 Fc with S228P F234A L235A (EU numbers) not printed]GGGGSGGGGSGGGGSGGGGSGIPPHVQKTVNNDMIVTDNNGAVKFPQLCKFCDVRFSTCDNQKSCMSNCSITSICEKPQEVCVAVWRKNDENITLETVCHDPKLPYHDFILEDAASPKCIMKEKKKPGETFFMCSCSSDECNDNIIFSEEYNTSNPD light: DIQMTQSPSSLSASVGDRVTITCRSSQHVSTALAWYQQKPGKSPKLLIYSASSRYSGVPDRFSGSGSGTDFTFTISSLQPEDFATYYCQQHYITPWTFGGGTKLEIKRTVAAPSVFIFPPSDEQLKSGTASVVCLLNNFYPREAKVQWKVDNALQSGNSQESVTEQDSKDSTYSLSSTLTLSKADYEKHKVYACEVTHQGLSSPVTKSFNRGEC |
